Assay results taken from PubChem BioAssay AID624417 (National Center for Advancing Translational Sciences (NCATS), 2012).
The whole screen tested about 410,000 compounds, of which about 6,400 (1.6%) were called active. This list was built around the results that the source calls inconclusive (neither active nor inactive); the mix of calls is not that of the screen. The call rests on the fitted dose curve; in most records, active means well fitted inhibition curve with a large enough effect; inconclusive means small, poorly fitted or top-dose-only effect; inactive means no such curve, though single readings can be large or run the other way. Potencies of inconclusive entries are left out as doubtful fits.

Each compound was assayed against Glucagon-like peptide 1 receptor (Homo sapiens) (UniProt P43220) (assay: qHTS of GLP-1 Receptor Inverse Agonists (Inhibition Mode)). Conditions: HEK293 GLP-1R CRE-luciferase, luminescence, 24 h, GLP-1R form is constitutively active; activity change, negative = inhibition: at 38.3 µM (top of the series) unless noted.
Chain of UniProt P43220 (P43220 whole entry, looked up): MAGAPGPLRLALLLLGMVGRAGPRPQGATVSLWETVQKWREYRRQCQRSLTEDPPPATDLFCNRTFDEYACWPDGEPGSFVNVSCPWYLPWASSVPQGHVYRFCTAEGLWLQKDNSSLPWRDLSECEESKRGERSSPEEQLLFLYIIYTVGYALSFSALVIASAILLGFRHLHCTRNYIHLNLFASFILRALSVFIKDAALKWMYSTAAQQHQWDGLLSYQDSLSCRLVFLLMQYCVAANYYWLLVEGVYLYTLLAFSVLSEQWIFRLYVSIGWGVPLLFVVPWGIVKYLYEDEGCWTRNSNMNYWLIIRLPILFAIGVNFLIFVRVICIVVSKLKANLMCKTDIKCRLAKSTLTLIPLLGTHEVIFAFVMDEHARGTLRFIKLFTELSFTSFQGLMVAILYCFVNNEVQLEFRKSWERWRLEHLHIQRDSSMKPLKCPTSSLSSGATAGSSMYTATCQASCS
In short: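 Assay principle: reduced luminescence from a cAMP-responsive reporter in HEK293 cells co-expressing a constitutively active GLP-1R. Conditions: 24 hr compound incubation, 37 deg C, 5% CO2.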
Further: nearly all actives have a fitted effect of over 55% in size.
On the % scale 0 is the no-effect control and ±100 the full control effect; potency means the concentration at half of the fitted maximal effect; tags describe the fitted curve by direction and shape.

Structure (SMILES) | activity change, negative = inhibition | Potency
COc1ccccc1NS(=O)(=O)c1cccc(C(=O)N/N=C/c2cn(-c3ccccc3)nc2-c2ccccc2)c1 | inactive: -13.6% | 
Cc1ccc(C)c(OCCn2c(=O)c3c(ncn3C3CCCC3)n(Cc3ccccc3)c2=O)c1 |  | inconclusive [inhibitor, full curve, poor fit]
COc1ccc(/C=N/NC(=O)CNC(=O)c2ccc3c(c2)OCCO3)c(C(=O)O)c1OC | inactive: 11.7% | 
O=C(c1ccc([N+](=O)[O-])cc1)n1nc(-c2ccccc2)nc1NCc1ccccc1 | inactive: 1.25% | 
COc1ccc([N+](=O)[O-])cc1N(CC(=O)NCCSc1ccc(C)cc1)S(C)(=O)=O | inactive: 9.17% | 
Nc1ccc(C(=O)OCc2nc3cc4ccccc4cc3[nH]2)cc1 |  | inconclusive [inhibitor, full curve, poor fit]
O=[N+]([O-])c1ccc(N(c2ccccc2)c2ccccc2)cc1 |  | inconclusive [inhibitor, single point]
CN(C)C1(CNC(=O)C2CCC(=O)N(CCc3ccc(Cl)cc3)C2)CCCCC1 (stereo unspecified) |  | inconclusive [inhibitor, partial curve, poor fit]
CCS(=O)(=O)Nc1ccc(C2=NN(C(C)=O)C(c3cccs3)C2)cc1 (stereo unspecified) |  | inconclusive [inhibitor, full curve, poor fit]
COc1ccccc1NC(=S)N/N=C1\CC(C)(C)Oc2ccc(O)cc21 |  | inconclusive [inhibitor, partial curve, poor fit]
CCOc1ccc2[nH]c3c(N4CCN(C(=O)c5ccco5)CC4)ncnc3c2c1 |  | inconclusive [inhibitor, full curve, poor fit]
C/C=C/c1c(F)c(F)c(Oc2ccc(C(=O)O)cc2)c(F)c1F | inactive: 0.339% | 
COC(=O)c1c(-c2ccc(OC)cc2)sc2ccc(N3CCOCC3)cc12 | inactive: 5% | 
Cc1ccc2c(CC(=O)NNC(=O)c3ccccc3O)coc2c1 |  | inconclusive [inhibitor, partial curve, poor fit]
O=C1[C@H](Cc2ccccc2)NCCCC[C@H](c2ccc(Cl)cc2)N1Cc1ccc(Cl)cc1 |  | inconclusive [inhibitor, partial curve, poor fit]
Cc1ccc(C2=NN(C(=O)c3cccs3)C(c3ccccc3O)C2)cc1 (stereo unspecified) | inactive: 9.48% | 
O=C(C1=C[C@H](c2ccccc2)C[C@H](OCc2ccc(CO)cc2)O1)N1CCN(Cc2ccc3c(c2)OCO3)CC1 |  | inconclusive [inhibitor, single point]
Cc1cc2ccccc2n1CCNC(=O)COc1ccc2ccccc2c1 |  | inconclusive [inhibitor, partial curve, poor fit]
Cc1ccc(SCC(=O)Nc2ccc(N3CCN(C)CC3)c(F)c2)cc1 |  | inconclusive [inhibitor, partial curve, poor fit]
CC(C)N(Cc1nnc(-c2ccccc2Cl)o1)C(=O)COc1cccc(Cl)c1 |  | inconclusive [inhibitor, single point]
NC(=S)NN=C1CCCC(C(F)(F)F)C1 (stereo unspecified) |  | inconclusive [inhibitor, single point]

Structure (SMILES) | activity change, negative = inhibition | Potency
COc1ccc(OC)c(Nc2ncnc3c2cnn3-c2cccc(C)c2)c1 |  | inconclusive [inhibitor, single point]
CN(Cc1ccccc1N1CCCC1)C(=O)c1cc2ccccc2o1 |  | active: 10 µM
O=C(Nc1cccc(F)c1)N1CCc2nc(NCc3cccc(Oc4ccccc4)c3)ncc2C1 |  | inconclusive [inhibitor, single point]
CCOC(=O)c1ccccc1NC(=O)N1CCCn2nc(C)cc21 | inactive: 18.6% | 
COc1ccc(C(C(=O)Nc2ccc(C(C)C)cc2)N(C)C(=O)c2ccc(=O)[nH]c2)cc1 (stereo unspecified) | inactive: -10.4% | 
CCC(=NCCc1c(C)[nH]c2ccc(C)cc12)C1=C(O)CC(c2ccccc2)CC1=O (stereo unspecified) |  | inconclusive [inhibitor, partial curve, poor fit]
Cc1ccc(S(=O)(=O)Nc2ccccc2F)cc1C(=O)NNC(=O)c1ccccc1O |  | inconclusive [inhibitor, single point]
Cc1noc(/C=C/c2ccccc2F)c1S(=O)(=O)N1CCC(C(=O)NCc2ccco2)CC1 | inactive: 12.6% | 
COc1ccc(S(=O)(=O)N2CCCCC2)cc1NC(=O)Cc1c[nH]c2ccccc12 |  | inconclusive [inhibitor, single point]
CCC(CC)C(C(=O)NCc1ccccc1)N(C)Cc1ccc(Cl)c(Cl)c1 (stereo unspecified) |  | inconclusive [inhibitor, partial curve, poor fit]
CCOC(=O)c1c(C)[nH]c(C(=O)OCC(=O)N2c3ccccc3CC2C)c1C (stereo unspecified) |  | active: 8.91 µM
CC1CCN(c2oc(-c3ccccc3Cl)nc2C#N)CC1 |  | inconclusive [inhibitor, single point]
Cc1ccc(OCc2cc(C(=O)NC(C)Cc3cccnc3)no2)cc1C (stereo unspecified) |  | inconclusive [inhibitor, single point]
FC(F)(F)COc1nc(N2CCCCC2)nc(N2CCNCC2)n1 |  | inconclusive [inhibitor, full curve, poor fit]
CC(=O)c1ccc(Nc2nc(C(N)c3ccccc3)cs2)cc1 (stereo unspecified) | inactive: 20% | 
Cc1ccc(CSCCNC(=O)CN(c2cc(C)ccc2C)S(C)(=O)=O)cc1 |  | inconclusive [inhibitor, partial curve, poor fit]
Cc1nc2cc(S(=O)(=O)N(C)C)ccc2n1-c1ccccc1 |  | inconclusive [inhibitor, partial curve, poor fit]
Clc1ccccc1CO/N=C1\CCCc2nonc21 |  | inconclusive [inhibitor, partial curve, poor fit]
CCOC(=O)N1CCN(CCC(=O)Nc2ccc(Br)c(C)c2)CC1 |  | inconclusive [inhibitor, partial curve, poor fit]
CN(CC(=O)Nc1ccc(Cl)c(C(F)(F)F)c1)C(=O)C1CC(=O)N(Cc2ccco2)C1 (stereo unspecified) |  | inconclusive [inhibitor, partial curve, poor fit]
